Structures can show the parent of a compound that is named as a salt. ± gives the standard deviation of the averaged measurements. The full ranking holds about 3,200 compounds; the median of “nuclei count (viability) relative to DMSO” is about 99, and the lowest 2% start at about 16. The list shows a part of the results.

This assay concerns U2OS. Kind of assay: nuclei count (viability) relative to DMSO (% of DMSO); higher = more viable cells. Particulars: 10 µM; 24 h. As to the method: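 Primary image-based screen in U2OS cells: compounds at 10 uM for 24 h, then a 1 h o-propargyl-puromycin (OPP) pulse, click labelling, and high-throughput microscopy. Mean cytoplasmic OPP intensity and nuclei count were normalised to DMSO wells within each plate (DMSO = 100) and averaged over triplicate plates.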
`C/C=C(\C)C(=O)N[C@@H](c1ccccc1)[C@@H](O)C(=O)O[C@H]1C[C@@]2(O)[C@@H](OC(=O)c3ccccc3)[C@@H]3[C@]4(OC(C)=O)CO[C@@H]4C[C@H](O)[C@@]3(C)C(=O)[C@H](OC(C)=O)C(=C1C)C2(C)C` [Cephalomannine] came in with a nuclei count of 37.5. As for `CCC(COC(=O)c1cc(OC)c(OC)c(OC)c1)(c1ccccc1)N(C)C` (stereo not drawn) [Trimebutine], the nuclei count was 102. Under `NCCc1c[nH]c2ccc(O)cc12` [Serotonin hydrochloride] stands 99.

`NCCc1c[nH]c2ccc(O)cc12` [Serotonin]: the nuclei count was 103. Under `CCN(C(C)=O)c1cccc(-c2ccnc3c(C#N)cnn23)c1` [Zaleplon] stands 100; under `COc1ccc(C[C@H]2NC[C@H](O)[C@H]2OC(C)=O)cc1` [Anisomycin], 12.5 ± 8.3; under `CCC1(c2cccc(O)c2)CCCCN(C)C1` (stereo not drawn) [Meptazinol hydrochloride], 101. Under `C[C@@H]1CC[C@H]2[C@@H](C)C(=O)O[C@@H]3O[C@@]4(C)CC[C@@H]1[C@]32OO4` [Artemisinin] stands 97 ± 5.9; under `CCNC1(c2cccs2)CCCCC1=O` (stereo not drawn) [Tiletamine hydrochloride], 113; under `COc1cc([C@@H]2c3cc4c(cc3[C@H](O)[C@H]3COC(=O)[C@H]23)OCO4)cc(OC)c1OC` [Podophyllotoxin], 15.6. Turning to `CC(C)(C)NCC(O)COc1cccc2[nH]c(C#N)cc12` (stereo not drawn) [Cyanopindolol hemifumarate], the nuclei count worked out at 92. Under `O=C1Nc2cc(Cl)c(Cl)cc2N2CCNCC12` (stereo not drawn) stands 95.9; under `COc1ccc(C(=O)O[C@H]2CC[C@@]3(C)[C@@H]4CC[C@H]5[C@]6(O)C[C@H](O)[C@@]7(O)[C@@H](CN8C[C@@H](C)CC[C@H]8[C@@]7(C)O)[C@]6(O)C[C@@]53O[C@]24O)cc1OC` [Veratridine], 99.4; under `Cc1cccc([C@H](C)c2c[nH]cn2)c1C` [Dexmedetomidine HCl (Precedex)], 106. `CC1(C(=O)O)C2CCC(O2)C1(C)C(=O)O` (stereo not drawn) [Cantharidic acid] gave a nuclei count of 66.9. The figure for `CCCN(CCC)[C@@H]1CCc2c(OC)cccc2[C@@H]1C` [(+)-UH 232 maleate] is 109; for `CC(C)(C)NCC(O)c1ccccc1Cl` (stereo not drawn) [Tulobuterol] it is 113.

As for `C#C[C@]1(O)C=C[C@H]2[C@@H]3CCC4=CC(=O)CC[C@@H]4[C@H]3CC[C@@]21CC` [Gestodene], the nuclei count amounted to 97. The compound `C[C@]12Cc3c[nH]nc3C[C@@H]1CC[C@@H]1[C@@H]2CC[C@@]2(C)[C@H]1CC[C@]2(C)O` [Stanozolol] came in with a nuclei count of 89.2. Under `Cc1nnc2ccc(-c3cccc(C(F)(F)F)c3)nn12` stands 92.3; under `C[C@@]12N[C@@H](Cc3ccccc31)c1ccccc12` [(-)-MK 801 maleate], 107. Under `C[C@@]12N[C@@H](Cc3ccccc31)c1ccccc12` [(-)-MK 801 hydrogen maleate] stands 106; under `C[N+]12CCC(CC1)C(OC(=O)C(O)(c1ccccc1)c1ccccc1)C2` (stereo not drawn) [Clidinium bromide], 97.1. `CO[C@]12C[C@@H](COC(=O)c3cncc(Br)c3)CN(C)[C@@H]1Cc1cn(C)c3cccc2c13` [Nicergoline]: the nuclei count is 88.9 ± 20.

For `CC(=O)OCC1=C(C(=O)O)N2C(=O)[C@@H](N)[C@H]2SC1` [Cephalosporanic acid, 7-amino], the nuclei count turned out to be 101.

For `CC(=O)OCC1=C(C(=O)O)N2C(=O)[C@@H](N)[C@H]2SC1` [7-Aminocephalosporanic acid], the nuclei count stood at 78.3.

Compound `O=C1C(=O)c2ccccc2-c2ccccc21` [9,10-Phenanthrenequinone] returned a nuclei count of 21.7. Under `CC(=O)OCC(=O)[C@H]1CC[C@H]2[C@@H]3CC[C@H]4C[C@H](O)CC[C@]4(C)[C@H]3C(=O)C[C@]12C` [Alfadolone acetate] stands 100. The figure for `NCc1cc(O)no1` [Muscimol] is 104.

Turning to `NC(=O)CN1CCCC1=O` [Piracetam], the nuclei count stood at 105.

With `COc1cc2c(cc1OC)C(C)NCC2` (stereo not drawn), the nuclei count amounted to 94.4. The figure for `C=C(C)[C@@H]1[C@H]2OC(=O)[C@@H]1[C@]1(O)C[C@H]3O[C@]34C(=O)O[C@H]2[C@]14C` [Picrotoxinin] is 104; for `CC(C)c1c(CN(C)C(C)Cc2ccccc2)n(C)n(-c2ccccc2)c1=O` (stereo not drawn) [Famprofazone] it is 102. The figure for `O=P1(NCCCl)OCCCN1CCCl` (stereo not drawn) [Ifosfamide] is 106.

Compound `COc1ccc(C(=O)c2c(C)n(CCN3CCOCC3)c3cc(I)ccc23)cc1` registered a nuclei count of 80. The figure for `CCCCC/C=C\C/C=C\C/C=C\C/C=C\CCCC(=O)NCCO` [Anandamide] is 103. The compound `Oc1ccc2c3c1O[C@H]1c4oc5ccccc5c4C[C@@]4(O)[C@@H](C2)N(CC2CC2)CC[C@]314` [Naltriben mesylate] returned a nuclei count of 97.6.

`COc1cc2c(cc1OC)C1CC(=O)C(CC(C)C)CN1CC2` (stereo not drawn) [Tetrabenazine] returned a nuclei count of 105. `CCCCC/C=C\C/C=C\C/C=C\C/C=C\CCCC(=O)Nc1ccc(O)cc1` registered a nuclei count of 97. `CCNC(=O)[C@H]1O[C@@H](n2cnc3c(N)ncnc32)[C@H](O)[C@@H]1O` registered a nuclei count of 99.1. With `Cc1cccc(C)c1NC1=NCCCS1` [Xylazine], the nuclei count was 108.

Compound `O=C(Oc1ccc([N+](=O)[O-])cc1)N1CCC(C(O)(c2ccc3c(c2)OCO3)c2ccc3c(c2)OCO3)CC1` showed a nuclei count of 111. The figure for `CCN(CC)CCO[C@H]1CC[C@@]2(C)C(=CC[C@@H]3[C@@H]2CC[C@]2(C)C(=O)CC[C@@H]32)C1` is 97; for `CN1C(=O)COc2c(C(=O)NC3CN4CCC3CC4)cc(Cl)cc21` (stereo not drawn) it is 96.5; for `C[C@H](N)Cn1ccc2cc(F)c(Cl)cc21` [Ro 60-0175 fumarate] it is 103. Under `CC[C@@H]1/C=C/C=C/C[C@H](C)[C@H](O)[C@](C)(O)C(=O)[C@H](C)[C@@H](O)[C@H](C)C(=O)[C@H](C)[C@@H](O)[C@H](C)/C=C/C(=O)O[C@H]2[C@@H](C)[C@@H](CC1)O[C@@]1(CC[C@@H](C)[C@@H](C[C@H](C)O)O1)[C@@H]2C` [Oligomycin A] stands 83.4. Under `CC(C)(C)[C@]1(O)CC2OC(=O)CC23C(=O)OC2OC(=O)[C@H](O)C231` (stereo partly drawn) [Bilobalide] stands 112. Turning to `Cc1[nH]c2ccc(Cl)cc2c1C1=CCNCC1`, the nuclei count turned out to be 96.9. Compound `Cc1cc(SCc2sc(-c3ccc(C(F)(F)F)c(F)c3)nc2C)ccc1OCC(=O)O` displayed a nuclei count of 98.5. Under `NC(=O)C[S+]([O-])C(c1ccccc1)c1ccccc1` (stereo not drawn) [Modafinil] stands 110. The compound `CC(=O)NC1CCSC1=O` (racemic) [N-Acetyl-DL-homocysteine Thiolactone] gave a nuclei count of 102. As to `CC(Cc1ccccc1)NCCC(c1ccccc1)c1ccccc1` (stereo not drawn) [Prenylamine lactate], the nuclei count was 100. With `C[C@]12CC[C@H](O)C[C@H]1CC[C@@H]1[C@@H]2C[C@@H](O)[C@]2(C)[C@@H](C3=CC(=O)OC3)CC[C@]12O` [Digoxigenin], the nuclei count came to 26.9.

`CN(C(=O)Cc1ccccc1)C(CN1CCCC1)c1ccccc1` (stereo not drawn) [N-MPPP Hydrochloride] showed a nuclei count of 87.9. The figure for `O=C(O[C@H]1C[N+]2(CCCOc3ccccc3)CCC1CC2)C(O)(c1cccs1)c1cccs1` [Aclidinium Bromide] is 102. The figure for `Clc1ccccc1C(c1ccccc1)(c1ccccc1)n1cccn1` is 102. Under `Clc1ccc(C(OCCN2CCCCC2)c2ccccc2)cc1` (stereo not drawn) [Cloperastine hydrochloride] stands 102; under `CN1CCN(C(=O)OC2c3nccnc3C(=O)N2c2ccc(Cl)cn2)CC1` (stereo not drawn) [Zopiclone], 105. The compound `CN[C@@H]1C[C@H]2O[C@@](C)([C@@H]1OC)n1c3ccccc3c3c4c(c5c6ccccc6n2c5c31)C(=O)NC4` [Staurosporine] returned a nuclei count of 10.1. On to `CN1[C@@H]2CC[C@H]1C[C@@H](OC1c3ccccc3CCc3ccccc31)C2` [Deptropine citrate], for which the nuclei count amounted to 97.9. Under `C[C@@H]1O[C@@H](O[C@H]2C[C@@H](O)[C@]3(CO)[C@H]4[C@H](O)C[C@]5(C)[C@@H](C6=CC(=O)OC6)CC[C@]5(O)[C@@H]4CC[C@]3(O)C2)[C@H](O)[C@H](O)[C@H]1O` [Ouabain] stands 19.9 ± 3.4; under `NCC(O)c1ccc(O)cc1` (racemic) [(+,-)-Octopamine hydrochloride], 109. The figure for `Cc1nc(N)sc1CCN` [Amthamine dihydrobromide] is 102.

`C[N+]1(C)[C@@H]2C[C@@H](OC(=O)[C@H](CO)c3ccccc3)C[C@H]1[C@@H]1O[C@@H]12` [Methscopolamine (Pamine)] showed a nuclei count of 104. The figure for `C[C@]12CC[C@H](O)C[C@@H]1CC[C@@H]1[C@@H]2CC[C@]2(C)C(=O)CC[C@@H]12` [Epiandrosterone] is 102. The figure for `C[C@]12CC[C@H](O)C[C@@H]1CC[C@@H]1[C@@H]2CC[C@]2(C)C(=O)CC[C@@H]12` is 98.6; for `Cn1cc(C(=O)C(=O)N[C@H]2CN3CCC2CC3)c2ccccc21` it is 102; for `CCn1cc(C(=O)O)c(=O)c2cc3c(cc21)OCO3` [Oxolinic acid] it is 97.5.

Regarding `N[C@@]1(C(=O)O)CC[C@@H](C(=O)O)C1`, the nuclei count amounted to 93.1. Under `CN(C)C(=O)Oc1cc(OC(=O)N(C)C)cc(C(O)CNC(C)(C)C)c1` (stereo not drawn) [Bambuterol hydrochloride] stands 95.4; under `CCN(C)C(=O)Oc1cccc([C@H](C)N(C)C)c1` [Rivastigmine], 110. The figure for `CC[C@@]1([C@@H]2O[C@@H]([C@H]3O[C@@](O)(CO)[C@H](C)C[C@@H]3C)C[C@@H]2C)CC[C@H]([C@]2(C)CC[C@]3(C[C@H](O)[C@@H](C)[C@@H]([C@@H](C)[C@@H](OC)[C@H](C)C(=O)O)O3)O2)O1` [Monensin sodium salt (Coban)] is 89.7; for `CC[C@@]1([C@@H]2O[C@@H]([C@H]3O[C@@](O)(CO)[C@H](C)C[C@@H]3C)C[C@@H]2C)CC[C@H]([C@]2(C)CC[C@]3(C[C@H](O)[C@@H](C)[C@@H]([C@@H](C)[C@@H](OC)[C@H](C)C(=O)O)O3)O2)O1` [Monensin sodium salt] it is 101.

(Values after the supplement of paper PMC8183993.)
